# In the supplement of paper PMC8728848:
# Some of the results follow.
# Columns and labels:
# Experiment in all cases: glycan array binding signal (z-score within array); higher = stronger binding
# Details in all cases: glycan notation: IUPAC condensed, linker removed
# [1] = target: Fuc(a1-2)Gal
# In short: (§1)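 The binding signal is a Z-score computed within each array and averaged over linkers. Arrays of the same protein sequence at different concentrations or buffers were also averaged together. Data originate from 3228 arrays in the Consortium for Functional Glycomics database, kept only where the protein sequence was available.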
# [2] = target: Fuc(a1-2)Gal(b1-3)GalNAc
# In short: as §1
# [3] = target: Fuc(a1-2)Gal(b1-3)GalNAc(a1-3)[Fuc(a1-2)]Gal(b1-4)Glc
# In short: as §1
# [4] = target: Fuc(a1-2)Gal(b1-3)GalNAc(a1-3)[Fuc(a1-2)]Gal(b1-4)GlcNAc
# In short: as §1
# [5] = target: Fuc(a1-2)Gal(b1-3)GalNAc(b1-3)Gal
# In short: as §1
# [6] = target: Fuc(a1-2)Gal(b1-3)GalNAc(b1-3)Gal(a1-4)Gal(b1-4)Glc
# In short: as §1
# [7] = target: Fuc(a1-2)Gal(b1-3)GalNAc(b1-4)[Neu5Ac(a2-3)]Gal(b1-4)Glc
# In short: as §1
# [8] = target: Fuc(a1-2)Gal(b1-3)GlcNAc
# In short: as §1
# [9] = target: Fuc(a1-2)Gal(b1-3)GlcNAc(b1-2)Man(a1-3)[Fuc(a1-2)Gal(b1-3)GlcNAc(b1-2)Man(a1-6)]Man(b1-4)GlcNAc(b1-4)GlcNAc
# In short: as §1
# [10] = target: Fuc(a1-2)Gal(b1-3)GlcNAc(b1-2)Man(a1-3)[Fuc(a1-2)Gal(b1-3)GlcNAc(b1-2)Man(a1-6)]Man(b1-4)GlcNAc(b1-4)[Fuc(a1-6)]GlcNAc
# In short: as §1
# [11] = target: Fuc(a1-2)Gal(b1-3)GlcNAc(b1-3)Gal(b1-4)Glc
# In short: as §1
# [12] = target: Fuc(a1-2)Gal(b1-3)GlcNAc(b1-3)GalNAc
# In short: as §1
# [13] = target: Fuc(a1-2)Gal(b1-3)GlcNAc(b1-3)[Fuc(a1-2)Gal(b1-3)GlcNAc(b1-6)]GalNAc
# In short: as §1
# [14] = target: Fuc(a1-2)Gal(b1-3)GlcNAc(b1-3)[Gal(b1-4)GlcNAc(b1-6)]Gal(b1-4)Glc
# In short: as §1
# [15] = target: Fuc(a1-2)Gal(b1-3)GlcNAc(b1-3)[Neu5Ac(a2-6)Gal(b1-4)GlcNAc(b1-6)]Gal(b1-4)Glc
# In short: as §1
# [16] = target: Fuc(a1-2)Gal(b1-3)GlcNAc6S
# In short: as §1
# [17] = target: Fuc(a1-2)Gal(b1-3)[Fuc(a1-4)]GlcNAc
# In short: as §1
# [18] = target: Fuc(a1-2)Gal(b1-3)[Fuc(a1-4)]GlcNAc(b1-2)Man(a1-3)[Fuc(a1-2)Gal(b1-3)[Fuc(a1-4)]GlcNAc(b1-2)Man(a1-3)]Man(b1-4)GlcNAc(b1-4)GlcNAc
# In short: as §1
# [19] = target: Fuc(a1-2)Gal(b1-3)[Fuc(a1-4)]GlcNAc(b1-2)Man(a1-3)[Fuc(a1-2)Gal(b1-3)[Fuc(a1-4)]GlcNAc(b1-2)Man(a1-6)]Man(b1-4)GlcNAc(b1-4)[Fuc(a1-6)]GlcNAc(b1-4)[Fuc(a1-6)]GlcNAc
# In short: as §1
# [20] = target: Fuc(a1-2)Gal(b1-3)[Fuc(a1-4)]GlcNAc(b1-3)[Fuc(a1-3)[Gal(b1-4)]GlcNAc(b1-6)]Gal(b1-4)Glc
# In short: as §1
# [21] = target: Fuc(a1-2)Gal(b1-3)[Fuc(a1-4)]GlcNAc(b1-3)[Gal(b1-4)GlcNAc(b1-6)]Gal(b1-4)Glc
# In short: as §1
# [22] = target: Fuc(a1-2)Gal(b1-4)Fuc(a1-3)]GlcNAc(b1-2)Man(a1-3)[Fuc(a1-2)Gal(b1-4)[Fuc(a1-3)]GlcNAc(b1-2)Man(a1-6)]Man(b1-4)GlcNAc(b1-4)GlcNAc
# In short: as §1
# [23] = target: Fuc(a1-2)Gal(b1-4)Glc
# In short: as §1
# [24] = target: Fuc(a1-2)Gal(b1-4)Glc6S
# In short: as §1
# [25] = target: Fuc(a1-2)Gal(b1-4)GlcNAc
# In short: as §1
# [26] = target: Fuc(a1-2)Gal(b1-4)GlcNAc(b1-2)Man
# In short: as §1
# [27] = target: Fuc(a1-2)Gal(b1-4)GlcNAc(b1-2)Man(a1-3)[Fuc(a1-2)Gal(b1-4)GlcNAc(b1-2)Man(a1-6)]Man(b1-4)GlcNAc(b1-4)GlcNAc
# In short: as §1
# [28] = target: Fuc(a1-2)Gal(b1-4)GlcNAc(b1-2)Man(a1-3)[Fuc(a1-2)Gal(b1-4)GlcNAc(b1-2)Man(a1-6)]Man(b1-4)GlcNAc(b1-4)[Fuc(a1-6)]GlcNAc
# In short: as §1
# [29] = target: Fuc(a1-2)Gal(b1-4)GlcNAc(b1-2)[Fuc(a1-2)Gal(b1-4)GlcNAc(b1-4)]Man(a1-3)[Fuc(a1-2)Gal(b1-4)GlcNAc(b1-2)Man(a1-6)]Man(b1-4)GlcNAc(b1-4)GlcNAc
# In short: as §1
# [30] = target: Fuc(a1-2)Gal(b1-4)GlcNAc(b1-3)Gal(b1-4)GlcNAc
# In short: as §1
binder,measurement,setting,value
DBA (Dolichos biflorus) (protein) ANIQSFSFKNFNSPSFILQGDATVSSGKLQLTKVKENGFPLRFPSGRAFYSSPIQIYDKFTGAVASWATSFTVKISAPSKASFADGIAFALVPVGSEPRRNGGYLGVFDSDVYNNSAQTVAVEFDTLSNSGWDPSMKHIGIDVNSIKSIATVSWDLANGENAEILITYNAATSLLVVSLVHPSRRTSYILSERVDITNELPEYVGVGFSATTGLSEGYIETHDVLSWSFASRLPDDSTAEPLDLARYLVRNVL,glycan array binding signal (z-score),[1],-0.069
same,glycan array binding signal (z-score),[2],-0.103
same,glycan array binding signal (z-score),[3],-0.133
same,glycan array binding signal (z-score),[4],-0.119
same,glycan array binding signal (z-score),[5],-0.1
same,glycan array binding signal (z-score),[6],-0.099
same,glycan array binding signal (z-score),[7],-0.141
same,glycan array binding signal (z-score),[8],-0.121
same,glycan array binding signal (z-score),[9],-0.054
same,glycan array binding signal (z-score),[10],-0.081
same,glycan array binding signal (z-score),[11],-0.131
same,glycan array binding signal (z-score),[12],-0.133
same,glycan array binding signal (z-score),[13],-0.041
same,glycan array binding signal (z-score),[14],-0.099
same,glycan array binding signal (z-score),[15],-0.152
same,glycan array binding signal (z-score),[16],-0.084
same,glycan array binding signal (z-score),[17],-0.142
same,glycan array binding signal (z-score),[18],-0.043
same,glycan array binding signal (z-score),[19],-0.09
same,glycan array binding signal (z-score),[20],-0.136
same,glycan array binding signal (z-score),[21],-0.087
same,glycan array binding signal (z-score),[22],-0.094
same,glycan array binding signal (z-score),[23],-0.076
same,glycan array binding signal (z-score),[24],-0.09
same,glycan array binding signal (z-score),[25],-0.05
same,glycan array binding signal (z-score),[26],-0.099
same,glycan array binding signal (z-score),[27],-0.048
same,glycan array binding signal (z-score),[28],0.259
same,glycan array binding signal (z-score),[29],0.014
same,glycan array binding signal (z-score),[30],-0.069
